# In paper PMC10726135:
# The list shows a part of the results. At the low end of the ranking the order means little. The protein was read in a cell extract, so binding may be indirect.
# Target: T1, HNF4alpha2 (COS-7 nuclear extract) (UniProt P41235)
# T1 sequence: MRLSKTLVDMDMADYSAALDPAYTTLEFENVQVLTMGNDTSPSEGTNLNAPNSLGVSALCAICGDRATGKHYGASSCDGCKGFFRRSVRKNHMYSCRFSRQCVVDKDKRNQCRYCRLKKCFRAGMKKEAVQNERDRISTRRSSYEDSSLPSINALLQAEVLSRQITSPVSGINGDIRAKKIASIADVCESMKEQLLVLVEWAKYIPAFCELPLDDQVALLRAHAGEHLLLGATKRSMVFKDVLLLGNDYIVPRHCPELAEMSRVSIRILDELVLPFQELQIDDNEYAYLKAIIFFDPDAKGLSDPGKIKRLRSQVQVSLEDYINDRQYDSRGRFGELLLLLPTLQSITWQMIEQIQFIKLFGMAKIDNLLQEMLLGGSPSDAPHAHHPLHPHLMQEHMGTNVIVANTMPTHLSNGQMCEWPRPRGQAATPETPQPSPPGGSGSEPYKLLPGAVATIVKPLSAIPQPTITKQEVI
# Assay: protein-binding microarray
# Conditions: COS-7 nuclear extract on double-stranded Agilent 4x180k PBM; binding buffer, salt, pH and temperature not given; high values mean tight binding; double strand, one strand shown; sequences stand for … in …GCCTAGGGAGATTAGAGTATCGGTCGA
row,Sequence,binding signal (log2 normalized intensity)
1,CTGAAAAACAAAATGCATTTCCTTATTCTT,-1.15
2,TGTTTGGATGCCAAATTCCTCCCACTCTGA,0.284
3,GGGCCTCAGAGAAAGCCTGTTTGCTTCTGC,-1.26
4,TTTTAGAGATCAGGATACCAAGGCTCAGAG,-0.851
5,TGTTTCCAATAGGTTTGATTTCAGCATGTT,1.59
6,GAGGGAAGGAGCCTAACTTTGATAGGCACA,-1.05
7,AAGACCAAAGGTCATGGCAACAGTTTTCTG,3.93
8,TAGACTATGCCAAACATTTCCTGCCTTTCA,-1.05
9,TGCCCTTTGCCTCCCTGCATTCCATTTCTG,2.2
10,TAGCTGAGGGCGCTGTTGATGGGCAGCGCG,-1.11
11,TTGAAGTCTGCCCTCCATGTAACCCCTTTT,3.71
12,TCTTCCAGCGGGTGCTTAAAAGATAACAGT,0.115
13,TCTACAGGACAGCCAGGCAGTCGGGAAATT,-1.03
14,AAAGGAGGCAAGGTCCAAACTTCTCCACTC,0.888
15,CTGCTCTGGGCTTTCTCTGCCTCCATCCCT,0.641
16,TCCTTAGTGCATGGGAACTTCTCACCTTCA,-0.652
17,GTATTTATCAACATTCTTTCTGATAATAGA,0.733
18,ACCTCAGAGAGCCGGAAACTCCACCTTCAG,-1.13
19,TGTGATCTACTCCCTGTTCTTACACCTGCT,-0.854
20,CCTGCCAAAGTTATCAAGTTGCTTAAATTC,0.931
21,TCCTAGAGTCCCTATTTGCTTGTGAATGAA,0.734
22,AATAAAATCTGGCAGCTTAAAAATGTTGAC,-0.633
23,CTGCTTGTGAGACCGGTTCCGCGGTCCGCA,-1.13
24,CCAGGCCTCCAGCTCTTTTGAACCCAAGGC,1.93
25,TCGAGGCCAGGGATTAAAGAATTCGTCCAG,-1.09

row,Sequence,binding signal (log2 normalized intensity)
1,GTATTGCAAGTATTTCACCCCAGAGGCTAA,2.18
2,TGAGTTCTTATCTAGGTAAGTATAGTGGGA,1.51
3,TTAGATCAGAGGTCTAATTCCCAAGGGTAT,-0.435
4,CTTCTGTTTAAACTGATAACCTTGCCCAAC,-0.676
5,CTCAAGAAAGGATCTCACCCAAACCATCCC,1.73
6,CAGAAATGCCGCTAATGTATTTCGGGGCAC,1.4
7,GCATACAGGGTCCAAAGGTGTCAAGAACAT,3.15
8,TCTGGCATAGGAACAAAGGTTGGTGTGAAC,2.03
9,TAAGCTCATGCTTTCATCTCCCCAACACTT,3.66
10,TTAGGCCTCGGGAGTCTGGCTGCCCTGGGG,-0.965
11,GTCCTACAAATGATCAAAGGTTGGTCTTAG,2.44
12,AGCCATTAGGCTGATGCCCTTTGGATTTAG,3.77
13,TGTGTAGACATCACCTGCTCATTGACCCTT,5.18
14,GTGTGAGGTCCAAGCAGATGCTTTGAAGTG,0.603
15,TTTTGATCAAGGAGGACTTTGGAATGGCAG,3.81
16,GATCCCGGGAGGGAGAGAAGGACATCTATC,-1.13
17,CCTGGTCACTATTGACATTTGGGGTCAGAT,3.47
18,TGGAAAGGTGAATGTACAAAGGTCAACGGC,5.6
19,CGTTAACATCAGCTGAGCAGAGAGGACCCT,1
20,ACAGACCTTTGTATATTCCCTTTGTATGGC,2.17
21,AGGAGGACATACTCCTACCACCAAAGAAAA,-1.01
22,GTATACTGACTAGGACAGAGCAGATGAAAG,-1.17
23,AAACACTGAACCTTGTCCCACTCTTGGGTC,1.64
24,ACAGTTGCTGTCTAGAAAGATTGCAGCAAG,-0.618
25,AGGCTGAGGTTTTCATCCCAGGGCTGGGGA,-0.657

row,Sequence,binding signal (log2 normalized intensity)
1,TCATTTCCCCATTCCTAAGTTCCAAAGGCC,2.88
2,GGGTTAAAGTCTACAACCAGAACTTCTTAT,1.7
3,ACTCTATGTTAGGCTGGAAAACTGGGCTGT,0.95
4,GCTGTGTCCCACAGGGAAAGTATGGGTCAG,1.12
5,AACCCCTTTTCAATTCCTTATCTCGTTCTG,0.489
6,CCCTGCATCCACATGGGCGTCACCAACCAG,2.18
7,GCCTTTAATCAACTGCAGGAGTCGGGAGGT,0.442
8,CAGTAACAGGGAGTCTGTTGCAAGCAATGG,0.619
9,ATGCTATCTCCCAGTTCTTTTGACCTTTGC,7.68
10,CTATGTCAATAGAGCATGAGAACTTCTTCC,-0.566
11,CAGGTGAGCCCTACTCAGGTTAATCTCAAA,-0.286
12,ATGCACGTGCTCCAGGAGGGGAGGAGGGTC,2.53
13,AGCTGTGAACTGACTGGGGTTAACGTCCAA,2.52
14,ATCCCAGTTACTCAGCGAATACCAAATTCC,-0.789
15,TGGGGATGCTCAAAGTACACTTGGAGAAAA,0.91
16,CAACCTGCTCTTCTCTAAAGTCTGCTATCT,0.611
17,TCACCCTGGTGCTGCTACTTTAGCTGCCAG,-1.09
18,CCTATTATTTTATAGAAAAGGAAAGTGAGG,1.42
19,TCCAAAGGTGTCAAGAACATAGCCCTCTAC,-1.39
20,GCCCACTTTCCTGGGCCGGGGTAGCGCTCT,-0.957
21,ACATCCTCTCAGGTCAAAGTTTGCCTTGAC,2.64
22,TGTGATGTGAAGAGTGTGGACTTTCACCTC,8.12
23,CTTTGACCTCAGAGAGCCGGAAACTCCACC,-1.05
